According to the BET-seq Pho4 binding data (Le et al. 2018):
This is one part of the list. These are noisy estimates, calculated here from bound and input reads.

target: T1, Pho4 (S. cerevisiae) (UniProt P07270); test: relative binding free energy (BET-seq); higher = weaker binding; conditions: reference: library average
T1 sequence: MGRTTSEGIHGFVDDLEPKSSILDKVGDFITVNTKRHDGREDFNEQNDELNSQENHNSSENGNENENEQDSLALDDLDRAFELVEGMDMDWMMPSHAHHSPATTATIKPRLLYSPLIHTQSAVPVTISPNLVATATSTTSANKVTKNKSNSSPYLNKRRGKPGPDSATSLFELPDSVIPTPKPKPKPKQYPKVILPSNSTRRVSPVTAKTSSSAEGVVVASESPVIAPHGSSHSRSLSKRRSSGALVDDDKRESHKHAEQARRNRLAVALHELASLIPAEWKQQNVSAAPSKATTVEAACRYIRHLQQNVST

| Sequence | relative binding free energy [kcal/mol] |
| --- | --- |
| GTTAGCACGTGTAATT | 0.04 |
| TTATACACGTGTAGCG | 0.12 |
| TAGCTCACGTGGGTGA | 0.06 |
| GTGTACACGTGTGTCG | 0.04 |
| GTTGTCACGTGCTTGC | 0.04 |
| GGGCCCACGTGGGGAG | -0.28 |
| ATTCGCACGTGTTGGA | -0.13 |
| TAATTCACGTGAATAG | 0.45 |
| GAATGCACGTGTCGTT | 0.11 |
| TGTGCCACGTGCTTGT | -0.21 |
| TTTGTCACGTGGTTCG | 0.13 |
| GGCAGCACGTGGTTGG | 0 |
| GGTGCCACGTGGGAGA | -0.17 |
| TGAGTCACGTGTTACG | 0.09 |
| GTGCTCACGTGGTTGT | 0.18 |
| TTTGGCACGTGTCAGC | 0.1 |
| TTGGTCACGTGCGTAG | 0.03 |
| TTATACACGTGGCTTG | -0.1 |
| TGGTACACGTGGGGGC | -0.02 |
| GCAGACACGTGGTGTG | -0.01 |
| GTAGGCACGTGTCTGT | -0.05 |
| AGGCGCACGTGGGGGA | -0.3 |
| TGTACCACGTGTGTGG | -0.03 |

| Sequence | relative binding free energy [kcal/mol] |
| --- | --- |
| TTTTTCACGTGTAGTC | 0.38 |
| ATGTTCACGTGTAACG | 0.4 |
| ATTTACACGTGATTGT | 0.21 |
| GGTTTCACGTGATCGG | 0.31 |
| TGGGGCACGTGTAACA | -0.07 |
| TGATTCACGTGCGGGT | 0.23 |
| CTTTGCACGTGCTTAG | 0 |
| CGATTCACGTGGTATG | 0.1 |
| TTCAACACGTGTGTTG | 0.09 |
| TTCTACACGTGATTGT | 0.13 |
| TCGTACACGTGGGTGA | -0.06 |
| TGAGGCACGTGTTCGG | -0.09 |
| TGATGCACGTGAAGTG | 0.25 |
| ATCATCACGTGTTGTG | 0.02 |
| CTGGGCACGTGTTTGT | -0.14 |
| ATTTACACGTGTCGTC | 0.22 |
| ATTTCCACGTGGTATA | 0.04 |
| TGTGTCACGTGGGTGC | -0.03 |
| TGTCGCACGTGTGTAG | -0.05 |
| GTGTGCACGTGATATT | 0.17 |
| AGATCCACGTGGGTGT | -0.09 |
| GTGGGCACGTGGGCCT | -0.18 |
| GCAGACACGTGGGTGT | -0.22 |

| Sequence | relative binding free energy [kcal/mol] |
| --- | --- |
| TGTAGCACGTGTCAGG | -0.03 |
| AGGCACACGTGGCGGT | -0.1 |
| GTGAGCACGTGTCGGG | -0.12 |
| GTAGTCACGTGTGCTT | 0.22 |
| CTTGTCACGTGGCATG | -0.07 |
| TTTAGCACGTGTATTG | -0.15 |
| GATTTCACGTGGACGT | 0.33 |
| CTATTCACGTGGTGAG | 0.09 |
| CTGCTCACGTGGTGTA | 0.12 |
| AGGTACACGTGAATTG | 0.13 |
| ATTAACACGTGAGTAT | 0.23 |
| GGGGGCACGTGTCACG | -0.17 |
| GGTGGCACGTGGATTC | 0.09 |
| GTAGTCACGTGTGCAG | 0.2 |
| ATAAGCACGTGGACGG | -0.07 |
| GATTTCACGTGGTTAG | 0.44 |
| GGACTCACGTGTAGGT | 0.22 |
| TTTCACACGTGGAGGG | 0.07 |
| TATTTCACGTGCTGGT | 0.28 |
| GTTGGCACGTGTCGTA | -0.09 |
| GGTTTCACGTGGAATT | 0.45 |
| TATAGCACGTGTGGTA | 0 |
| CGGATCACGTGTGGCG | 0.17 |

| Sequence | relative binding free energy [kcal/mol] |
| --- | --- |
| TCGAACACGTGATAGG | 0.26 |
| AGGTGCACGTGGGCCG | -0.15 |
| GTGTACACGTGGCGGG | 0.04 |
| ACATGCACGTGGGGTT | -0.26 |
| AATTACACGTGAGGAG | 0.3 |
| GTTGTCACGTGCTGGA | 0.07 |
| TTTATCACGTGGTTGA | 0.07 |
| TAATCCACGTGATGGT | 0.19 |
| TTAGCCACGTGGTGTA | -0.15 |
| TATTTCACGTGTGGAG | 0.44 |
| ATTCTCACGTGTCGTT | 0.07 |
| GGTTTCACGTGTAGAC | 0.36 |
| CTTTCCACGTGGGGGA | -0.08 |
| AGGTTCACGTGGGGCG | 0.23 |
| TCGTGCACGTGGCTGG | -0.23 |
| ATGTACACGTGTTGAT | 0.03 |
| GGGAGCACGTGTTGCG | -0.13 |
| AGAGGCACGTGGTAAA | -0.07 |
| GAGGCCACGTGTTGGT | -0.02 |
| TGGAGCACGTGAGACG | 0.19 |
| TCAGGCACGTGGCGTG | -0.21 |
| GTACGCACGTGGTGTC | -0.15 |
| TGGTTCACGTGAATCG | 0.48 |

| Sequence | relative binding free energy [kcal/mol] |
| --- | --- |
| GTGGTCACGTGGTATT | 0.09 |
| GGCTCCACGTGGGGGA | -0.14 |
| AAGGCCACGTGGGCTG | -0.12 |
| TTTTGCACGTGTATGT | 0.15 |
| AAAGTCACGTGGGGCG | 0.03 |
| GGCGGCACGTGCTTTA | 0.07 |
| TGGTACACGTGAGGGC | 0.23 |
| GAGTACACGTGGTGTT | 0.17 |
| TCGTACACGTGGGAGG | 0.03 |
| GTAGTCACGTGGCGAT | 0.19 |
| TTTGGCACGTGTCCTT | -0.13 |
| AATGCCACGTGTCGGG | -0.01 |
| CTTGTCACGTGGTGTT | -0.01 |
| ATTAGCACGTGAAGTA | 0.2 |
| ATGAGCACGTGGTGAG | -0.03 |
| ATCGGCACGTGGGTGC | -0.12 |
| GGGTACACGTGGCGTG | 0.01 |
| GCAATCACGTGTGGGT | 0.16 |
| TTAAGCACGTGGTTCT | -0.16 |
| GGTATCACGTGAGACT | 0.52 |
| AGATACACGTGATAGG | 0.19 |
| AGAGGCACGTGATAGG | -0.16 |
| TGACTCACGTGGGTTG | 0.13 |
